Here are results for one molecule from US20070093418A1 (Amgen, published 2007).

The target in assay [1] is T1, human angiopoietin-2 (Ang-2) (human, UniProt O15123 19-496, limits assumed).
T1 construct: Several preparations are used (R&D Systems protein, biotinylated R&D protein, 293T conditioned media); also called hAng-2; huAng-2
T1 sequence (looked up): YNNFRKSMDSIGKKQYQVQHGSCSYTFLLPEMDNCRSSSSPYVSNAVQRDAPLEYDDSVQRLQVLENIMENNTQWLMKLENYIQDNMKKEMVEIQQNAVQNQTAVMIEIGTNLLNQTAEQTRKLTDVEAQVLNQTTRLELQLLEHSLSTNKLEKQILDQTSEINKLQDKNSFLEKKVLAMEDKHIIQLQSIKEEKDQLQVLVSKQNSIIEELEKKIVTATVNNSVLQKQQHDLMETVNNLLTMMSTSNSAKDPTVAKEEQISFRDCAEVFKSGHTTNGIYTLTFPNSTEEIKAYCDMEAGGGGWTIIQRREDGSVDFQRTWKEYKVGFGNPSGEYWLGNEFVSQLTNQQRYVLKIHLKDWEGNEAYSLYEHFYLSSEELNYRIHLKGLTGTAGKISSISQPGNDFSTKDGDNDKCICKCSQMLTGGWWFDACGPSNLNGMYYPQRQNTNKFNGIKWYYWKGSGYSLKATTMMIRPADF
Kind of assay: neutralization ELISA (Tie-2-Fc vs coated hAng-2). Here is the method: Microtiter plates to which human Ang-2 polypeptide was bound were prepared as described for the Affinity ELISA. […] Plates were incubated at room temperature for about 1 hour, after which they were washed five times with PBS containing about 0.1 percent Tween-20. About 100 microliters per well of TMB substrate (described above) was then added and color was allowed to develop. Absorbance was then read in a spectrophotomer at 370 nm.

For assay [2], the target named is T2, murine angiopoietin-2 (Ang-2) (murine, UniProt O35608 19-496, limits assumed).
T2 construct: also called mAng-2
T2 sequence (looked up): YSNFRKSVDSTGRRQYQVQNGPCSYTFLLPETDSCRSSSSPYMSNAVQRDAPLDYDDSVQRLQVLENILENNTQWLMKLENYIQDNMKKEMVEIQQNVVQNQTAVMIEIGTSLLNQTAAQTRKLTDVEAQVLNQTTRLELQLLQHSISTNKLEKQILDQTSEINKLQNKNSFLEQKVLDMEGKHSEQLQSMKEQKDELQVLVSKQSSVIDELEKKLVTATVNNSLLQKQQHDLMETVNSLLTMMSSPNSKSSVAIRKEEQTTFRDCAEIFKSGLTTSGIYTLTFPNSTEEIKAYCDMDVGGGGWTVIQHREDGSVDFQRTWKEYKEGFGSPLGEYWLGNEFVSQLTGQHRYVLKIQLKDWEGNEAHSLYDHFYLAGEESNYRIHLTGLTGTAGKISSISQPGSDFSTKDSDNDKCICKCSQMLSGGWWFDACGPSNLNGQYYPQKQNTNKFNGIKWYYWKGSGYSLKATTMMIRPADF
Put plainly: neutralization ELISA (Tie-2-Fc vs coated mAng-2).

B1: 2xL1 (N) (Fc fusion)
chain: MGAQKFNPLDELEETLYEQFTFQQGGGGGGGGKFNPLDELEETLYEQFTFQQLEGGGGG[human IgG1 Fc not written out]
With B1, the half-maximal inhibitory concentration (IC50) in assay [1] came to 0.65 nM; in assay [2], 0.8 nM.
